{"source": "the supplement of paper PMC12645437", "about": "“Orthogonal IMiD-Degron Pairs Induce Selective Protein Degradation in Cells” (ACS Chemical Biology, 2025)", "note": "This is one part of the list.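 Note: jurkat cells carrying a lentiviral library of mutant zinc finger degrons fused to EGFP plus mCherry, mCherry+ cells FACS sorted, degron abundance counted by next-generation sequencing.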", "data": [{"target": "no compound (DMSO)", "test": "log2 fold change of degron read counts, EGFP-low vs EGFP+ sorted cells; higher = lower degron-EGFP level without compound (poor expression or instability)", "details": "compound: DMSO control; 18 h", "values": [{"sequence": "FGCPVCGAIFTQKGNLLRHIKL", "log2 fold change of degron read counts": 0.491}, {"sequence": "FFCDQCGAAFTQKGNLLRHIKL", "log2 fold change of degron read counts": -1.75}, {"sequence": "FVCDVCGAMFTQKGNLLRHIKL", "log2 fold change of degron read counts": -1.27}, {"sequence": "FNCPQCGATFTQKGNLLRHIKL", "log2 fold change of degron read counts": -1.17}, {"sequence": "LHCPICGFCCTQKGNLLRHIKL", "log2 fold change of degron read counts": 1.38}, {"sequence": "LNCEICGFWCTQKGNLLRHIKL", "log2 fold change of degron read counts": 1.74}, {"sequence": "FICDICGAKFTQKGNLLRHIKL", "log2 fold change of degron read counts": -1.33}, {"sequence": "FLCDVCGAQFTQKGNLLRHIKL", "log2 fold change of degron read counts": -1.75}, {"sequence": "FQCPICGAKFTQKGNLLRHIKL", "log2 fold change of degron read counts": -0.164}, {"sequence": "FTCEICGRWFTQKGNLLRHIKL", "log2 fold change of degron read counts": -0.776}, {"sequence": "FQCNQCGHDFTQKGNLLRHIKL", "log2 fold change of degron read counts": -1.42}, {"sequence": "FGCNQCGHMFTQKGNLLRHIKL", "log2 fold change of degron read counts": 0.702}, {"sequence": "FACNQCGANFTQKGNLLRHIKL", "log2 fold change of degron read counts": -1.03}, {"sequence": "FYCDQCGACFTQKGNLLRHIKL", "log2 fold change of degron read counts": -0.526}, {"sequence": "FDCNQCGHQFTQKGNLLRHIKL", "log2 fold change of degron read counts": -0.571}, {"sequence": "FICNVCGAQFTQKGNLLRHIKL", "log2 fold change of degron read counts": -0.489}, {"sequence": "FMCNQCGADFTQKGNLLRHIKL", "log2 fold change of degron read counts": -1.3}, {"sequence": "FKCPICGRVFTQKGNLLRHIKL", "log2 fold change of degron read counts": -1.18}, {"sequence": "FHCDICGAQFTQKGNLLRHIKL", "log2 fold change of degron read counts": -1.46}, {"sequence": "FACEICGRCFTQKGNLLRHIKL", "log2 fold change of degron read counts": -1.1}, {"sequence": "FQCNQCGRLFTQKGNLLRHIKL", "log2 fold change of degron read counts": -0.0321}, {"sequence": "LNCPICGFPCTQKGNLLRHIKL", "log2 fold change of degron read counts": 1.7}, {"sequence": "FGCPVCGAYFTQKGNLLRHIKL", "log2 fold change of degron read counts": 0.572}, {"sequence": "FYCEICGAIFTQKGNLLRHIKL", "log2 fold change of degron read counts": -0.136}, {"sequence": "FYCEICGHIFTQKGNLLRHIKL", "log2 fold change of degron read counts": 0.748}, {"sequence": "FCCNQCGHQFTQKGNLLRHIKL", "log2 fold change of degron read counts": -0.305}, {"sequence": "LACNQCGFCCTQKGNLLRHIKL", "log2 fold change of degron read counts": 0.464}, {"sequence": "FHCEICGHDFTQKGNLLRHIKL", "log2 fold change of degron read counts": -1.13}, {"sequence": "FACDQCGANFTQKGNLLRHIKL", "log2 fold change of degron read counts": -2.09}, {"sequence": "LWCPICGFCCTQKGNLLRHIKL", "log2 fold change of degron read counts": 2.99}, {"sequence": "FNCDVCGAGFTQKGNLLRHIKL", "log2 fold change of degron read counts": -1.6}, {"sequence": "FYCNQCGHRFTQKGNLLRHIKL", "log2 fold change of degron read counts": 0.83}, {"sequence": "FSCEICGRFFTQKGNLLRHIKL", "log2 fold change of degron read counts": -0.859}, {"sequence": "LMCPICGFACTQKGNLLRHIKL", "log2 fold change of degron read counts": 0.75}, {"sequence": "FTCDVCGAQFTQKGNLLRHIKL", "log2 fold change of degron read counts": -1.76}, {"sequence": "FYCPQCGAIFTQKGNLLRHIKL", "log2 fold change of degron read counts": 0.445}, {"sequence": "FWCNQCGAGFTQKGNLLRHIKL", "log2 fold change of degron read counts": 0.13}, {"sequence": "LLCNQCGFNCTQKGNLLRHIKL", "log2 fold change of degron read counts": 0.53}, {"sequence": "FYCEICGHYFTQKGNLLRHIKL", "log2 fold change of degron read counts": 0.291}, {"sequence": "FNCDICGAIFTQKGNLLRHIKL", "log2 fold change of degron read counts": -0.54}, {"sequence": "FQCEQCGAYFTQKGNLLRHIKL", "log2 fold change of degron read counts": -1.77}, {"sequence": "FACEQCGADFTQKGNLLRHIKL", "log2 fold change of degron read counts": -0.899}, {"sequence": "FTCNQCGHPFTQKGNLLRHIKL", "log2 fold change of degron read counts": 0.126}, {"sequence": "FLCPICGAYFTQKGNLLRHIKL", "log2 fold change of degron read counts": 1.01}, {"sequence": "FICNQCGREFTQKGNLLRHIKL", "log2 fold change of degron read counts": -1.01}, {"sequence": "FCCDICGAQFTQKGNLLRHIKL", "log2 fold change of degron read counts": -1.67}, {"sequence": "FNCPICGATFTQKGNLLRHIKL", "log2 fold change of degron read counts": -0.291}, {"sequence": "FACEICGRPFTQKGNLLRHIKL", "log2 fold change of degron read counts": -0.0689}, {"sequence": "FDCPICGANFTQKGNLLRHIKL", "log2 fold change of degron read counts": -0.871}, {"sequence": "FGCEICGARFTQKGNLLRHIKL", "log2 fold change of degron read counts": -0.801}]}]}
